# Test results published in article PMC4336329 (PLoS ONE, 2015).
# Hit rate of the full screen: of about 310,000 compounds, about 2,200 (0.71%) showed an effect of 50% or more. Effects have a minus sign here. This is one part of the list.
# Target: human ether-à-go-go-related gene (hERG) potassium channel (human, UniProt Q12809)
# Experiment: primary screen, population patch clamp on CHO cells stably expressing hERG
# human ether-à-go-go-related gene (hERG) potassium channel, sequence (Q12809 whole entry, looked up): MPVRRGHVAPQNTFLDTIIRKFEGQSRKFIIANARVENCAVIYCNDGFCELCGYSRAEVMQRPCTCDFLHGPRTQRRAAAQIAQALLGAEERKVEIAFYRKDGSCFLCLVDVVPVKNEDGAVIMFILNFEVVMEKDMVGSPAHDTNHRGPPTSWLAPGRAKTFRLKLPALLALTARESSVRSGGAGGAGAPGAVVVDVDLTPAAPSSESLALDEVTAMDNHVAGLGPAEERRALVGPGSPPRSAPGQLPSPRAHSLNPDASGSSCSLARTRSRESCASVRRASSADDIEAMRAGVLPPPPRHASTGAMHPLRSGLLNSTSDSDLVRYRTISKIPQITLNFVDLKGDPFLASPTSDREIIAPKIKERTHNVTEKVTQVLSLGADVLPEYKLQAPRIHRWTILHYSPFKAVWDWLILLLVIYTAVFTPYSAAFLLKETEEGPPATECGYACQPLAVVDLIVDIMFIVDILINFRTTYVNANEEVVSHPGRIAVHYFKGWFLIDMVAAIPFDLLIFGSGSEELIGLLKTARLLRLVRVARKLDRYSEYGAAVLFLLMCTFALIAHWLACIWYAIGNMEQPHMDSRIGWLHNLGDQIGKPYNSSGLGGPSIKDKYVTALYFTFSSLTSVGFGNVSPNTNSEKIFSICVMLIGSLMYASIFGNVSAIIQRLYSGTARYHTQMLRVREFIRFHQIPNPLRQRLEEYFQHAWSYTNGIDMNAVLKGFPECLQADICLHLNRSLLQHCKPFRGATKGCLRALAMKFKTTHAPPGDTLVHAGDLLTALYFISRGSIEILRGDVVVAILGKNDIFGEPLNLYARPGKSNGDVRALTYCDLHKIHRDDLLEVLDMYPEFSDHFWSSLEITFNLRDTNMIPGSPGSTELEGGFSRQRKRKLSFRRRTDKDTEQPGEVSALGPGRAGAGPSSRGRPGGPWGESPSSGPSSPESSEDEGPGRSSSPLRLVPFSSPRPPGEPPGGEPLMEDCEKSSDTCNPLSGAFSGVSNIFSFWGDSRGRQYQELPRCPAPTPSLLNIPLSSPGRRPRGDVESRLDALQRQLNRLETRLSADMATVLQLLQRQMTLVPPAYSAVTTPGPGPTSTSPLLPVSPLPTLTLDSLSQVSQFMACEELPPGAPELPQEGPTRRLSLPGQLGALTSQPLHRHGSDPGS
row,Compound,"hERG current change (%, negative = inhibition) at 1uM"
1,COc1ccc(C(=O)Nc2cc(S(=O)(=O)N3CCCCC3)ccc2OC)cc1,15.5%
2,CCc1ccc(NCc2cc3c(C)nn(-c4ccccc4)c3[nH]c2=O)cc1,20%
3,C=CC(C)C(C(=O)c1ccccc1)N(C)C (stereo not drawn),22.2%
4,CC1CC(C)CN(CC(O)COCc2ccccc2F)C1.Cl (stereo not drawn),-2.43%
5,CCN1/C(=C2/SC(=S)N(NC(C)=O)C2=O)Sc2ccc(OC)cc21,8.25%
6,C=CCn1c(O)c(N=O)c2cc(C)ccc21,8.91%
7,C=CCNc1nnc(Cl)c2ccccc12,-13.1%
8,C=CCN(C(=O)Nc1ccc(F)cc1)C1CC(=O)N(c2ccc(OC)cc2)C1=O (stereo not drawn),-0.731%
9,COc1cc(C(CC(=O)N2CCCC2)c2c(OC)cc(OC)c3ccc(=O)oc23)cc(OC)c1OC (stereo not drawn),17.4%
10,COc1ccc(C2c3c(ncn(Cc4ccco4)c3=N)Oc3ccc4ccccc4c32)cc1 (stereo not drawn),4.97%
11,COCCn1c(=NC(=O)/C=C/c2ccccc2Cl)sc2cc(NC(C)=O)ccc21,1.65%
12,Fc1ccc(/C=N/Nc2nnnn2-c2ccccc2)cc1,6.97%
13,CCCCOCCCNC(=O)c1ccccc1OCC,5.26%
14,COCCNC(=O)c1ccc(-n2c(SCc3ccncc3)nc3ccccc3c2=O)cc1,3.33%
15,COC(=O)CSc1nc2sc3c(c2c(=O)[nH]1)CCC3,8.7%
16,O=C(COC(=O)c1ccc(S(=O)(=O)N2CCCC2)cc1)Nc1ccccc1,2.33%
17,CCc1ccc2[nH]c(=O)c(C(c3nnnn3CCOC)N3CCN(c4ccc(F)cc4)CC3)cc2c1 (stereo not drawn),1.97%
18,CC(=O)N(c1ccccc1)c1nc(/C=C/C(=O)O)cs1,16%
19,O=C(CN(C(=O)CNS(=O)(=O)c1ccc(F)cc1)c1ccccc1)NCc1ccco1,3.48%
20,COc1ccc(C(C)=O)cc1COc1cc(C)c(Cl)c(C)c1,12.5%
21,CC(=O)c1cc(-c2ccccc2)n(CCC(=O)NC2CCC(C)CC2)c1C (stereo not drawn),12.5%
22,Cc1nn2cc(-c3cccc(Cl)c3)cnc2c1Br,4.01%
23,Cc1cc(C)nc(SCc2nnc(SCC(=O)OC3CCCCC3)o2)n1,9.68%

row,Compound,"hERG current change (%, negative = inhibition) at 1uM"
1,COc1cc(CNn2cn[nH]c2=S)ccc1OCC(=O)NC(C)(C)C,9%
2,O=C(O)C1CCCN1S(=O)(=O)c1ccc2ccccc2c1 (stereo not drawn),21%
3,CCOC(=O)C1CCN(C(=O)Nc2ccc(OCc3ccccc3)cc2)CC1,9.36%
4,COc1ccc(OC)c(Nc2nc(C)nc3c2oc2ccccc23)c1,12.7%
5,CCCCN(C(=O)c1ccc2c(c1)S(=O)(=O)N=C1CCCCCN12)c1c(N)n(CCCC)c(=O)[nH]c1=O,13.6%
6,CC(C)CN1C(=O)C(NC(=O)C2CC2)(C(F)(F)F)C2=C1CC(C)(C)CC2=O (stereo not drawn),7.23%
7,Cc1cccc(NC(=O)c2cc3ccccc3o2)c1,-10.9%
8,CC(C)NS(=O)(=O)c1ccc(OCC(=O)NCC2CCCO2)c(Cl)c1 (stereo not drawn),-2.21%
9,CC1CCCCN1S(=O)(=O)c1ccc(C(=O)N2CCOCC2)cc1 (stereo not drawn),14.9%
10,COc1ccc(-c2cc(C(=O)Nc3ccc(C)c(N)c3)c3ccccc3n2)cc1,13.7%
11,Cl.c1ccc2c(c1)oc1c(Nc3ccc(CN4CCOCC4)cc3)ncnc12,-23%
12,Cc1cc(C)cc(NC(=O)C/C(N)=N/O)c1,11.4%
13,CC(C)(C)c1ccccc1N=Cc1ccc2ccccc2n1,13.7%
14,OCc1ncc(-c2ccccc2)s1,8.92%
15,O=C(NCCC1=CCCCC1)c1cnc2n(c1=O)CCS2,-26%
16,c1ccc(N2CCN(c3ncnc4c3oc3ccccc34)CC2)cc1,13.1%
17,CC(C)(C)C(=O)NC(c1ccccc1)c1c(O)ccc2ccccc12 (stereo not drawn),22.3%
18,COc1ccc(OCC(=O)N2CCN(S(=O)(=O)c3ccc(Cl)cc3)CC2)cc1,-17.7%
19,CCOc1ccc(-n2c(-c3ccc(Br)cc3)c[n+]3c2CCCCC3)cc1.[Br-],-46.5%
20,O=C(NCCO)/C(=C/c1ccco1)NC(=O)c1ccco1,11.4%
21,COc1cc2c(c(OC)c1)C(c1cccc(OC)c1OC)CC(=O)N2 (stereo not drawn),6.36%
22,Cc1cccc(C)c1NC(=S)NC(=O)CCc1ccccc1,6.68%
23,CN(C)c1ccc2c(=O)[nH][nH]c(=O)c2c1,14.5%

row,Compound,"hERG current change (%, negative = inhibition) at 1uM"
1,O=C(NC1CC2CCCC(C1)N2Cc1ccc(F)cc1)c1ccc(F)cc1 (stereo not drawn),-38.3%
2,COc1ccc(CCC(=O)Nc2ccc(S(=O)(=O)Nc3ncccn3)cc2)cc1,8.82%
3,CNS(=O)(=O)c1cccc(C(=O)OCc2cc(=O)n3cc(Br)ccc3n2)c1,-0.714%
4,Cc1ccc(SCCC(=O)N2CCCC2)cc1,8.86%
5,CCN1CCN(CC(=O)Nc2ccc(Cl)c(Cl)c2)C(=O)C1=O,7.8%
6,COC(=O)C1=C(c2ccc(C(C)=O)cc2)C[C@@H]2CC[C@H]1N2C(=O)NCc1ccc(C(F)(F)F)cc1,20.4%
7,CCCN(C(=O)CCSc1ccc(F)cc1)c1c(N)n(Cc2ccccc2)c(=O)[nH]c1=O,5.67%
8,O=C(CN1CCN(S(=O)(=O)c2ccc(Cl)cc2)CC1)Nc1ccc2c(c1)OCO2,-17.3%
9,Cc1[nH]c(=O)[nH]c(=O)c1S(=O)(=O)N1CCN(c2ccccc2F)CC1,7.18%
10,Cc1ccc(SCCCCN2CCOCC2)cc1.Cl,10.8%
11,CC(=O)Nc1ccc(NC(=O)C2CCN(c3ccc(C(F)(F)F)cn3)CC2)cc1,12.2%
12,CCN(c1ccc(NC(=O)COC(=O)CCC(=O)c2ccc(F)cc2)cc1)C(C)C,4.98%
13,O=C(CS(=O)c1ccccc1[N+](=O)[O-])Oc1ccc(Br)cc1 (stereo not drawn),13.9%
14,COc1ccc(C(=O)N2CCC(n3c(C)nc4cc(F)ccc43)CC2)cc1,-44.5%
15,CCCSC1=C(C#N)C(c2cccs2)CC(=O)N1 (stereo not drawn),8.8%
16,CN(CCc1ccccn1)C(=O)c1nn2c(C(F)(F)F)cc(-c3ccco3)nc2c1Cl,-16.7%
17,CC(=O)N1CCN=C1SCc1ccc(Br)cc1,0.672%
18,O=C(NCc1nnc(SC/C=C/c2ccccc2)o1)c1ccco1,8.31%
19,CCN(CC)CCCNS(=O)(=O)c1ccc(OC)cc1,15%
20,CCCCn1c(N)c(N(CC)C(=O)c2ccccc2C(F)(F)F)c(=O)[nH]c1=O,16.8%
21,Cc1ccc(CC(CC(=O)O)C(=O)NCC23CC4CC(CC(C4)C2)C3)cc1 (stereo not drawn),11.5%
22,CC(C)OC(=O)c1c(-c2ccc(C(C)C)cc2)csc1NC(=O)C1CCCO1 (stereo not drawn),11.7%
23,CCCN(CC(=O)Nc1ccccc1OC)C(=O)Cn1[nH]c(=O)c2ccccc2c1=O,9.03%

row,Compound,"hERG current change (%, negative = inhibition) at 1uM"
1,Cc1ccc(C(=O)N2CCN(c3ncccn3)CC2)cc1S(=O)(=O)N1CCCCC1,7.45%
2,CCCCn1c(NC(=S)Nc2ccccc2)nc2ccccc21,3.56%
3,O=C(NCc1n[nH]c(=O)c2ccccc12)C1CC(=O)N(c2ccc(Cl)cc2)C1 (stereo not drawn),-9.93%
4,CN(C)C(CNC(=O)CCc1nc2sc3c(c2c(=O)[nH]1)CCCC3)c1ccccc1 (stereo not drawn),7.35%
5,COC(=O)COc1ccc(S(=O)(=O)Nc2ccc3c(c2)OCCO3)cc1C,17.2%
6,CN(C)S(=O)(=O)c1ccc(C(=O)NCCN=C2NS(=O)(=O)c3ccccc32)cc1,19%
7,COc1ccc(Br)c(C(=O)NCCC(C)C)c1,12.1%
8,COc1ccc(C(=O)NNC(=O)C2CCN(S(=O)(=O)c3ccc(C)cc3)CC2)cc1,7.33%
9,Cc1ccc(C(=O)C(C)OC(=O)C2CC(=O)N(C3CCCCC3)C2)cc1 (stereo not drawn),9.68%
10,CC(=O)c1cccc(NC(=O)c2ccc(C(=O)Nc3cccc(C(C)=O)c3)nc2)c1,13%
11,Cc1ccc2c(CC(=O)Nc3c(C)n(C)n(-c4ccccc4)c3=O)coc2c1,7.79%
12,C/C(CC(=O)Nc1ccccc1C)=N\NC(=O)Cc1csc(N)n1.CC(C)O,4.79%
13,CC(=O)Oc1ccc(C(=O)Nc2ccccc2C(=O)Nc2ccc(C(=O)O)cc2)cc1,17.6%
14,S=c1[nH]nc(Nc2ccccc2)s1,11.8%
15,CCn1c(CCNC(=O)c2ccc(OC)cc2)nnc1SCc1ccc(Cl)cc1Cl,-38.2%
16,O=C(NNc1ccccn1)C(c1ccccc1)c1ccccc1,11.9%
17,Cc1nnc(NC(=O)CCn2c(=O)oc3ccccc32)s1,17.9%
18,O=C(NCCN1CCOCC1)/C(=C\c1ccc(F)cc1)NC(=O)c1ccccc1,-51.7%
19,S=C(Nc1ccc2nsnc2c1)N1CCCC1,15.5%
20,CCCn1cnc2scc(-c3ccc(OC)cc3)c2c1=O,8.19%
21,NC(=O)C1CCN(C(=O)N2c3ccccc3Sc3ccccc32)CC1,0.149%
